Assay results as given in publication PMC7819943, “Rice protein-binding microarrays: a tool to detect cis-acting elements near promoter regions in rice”.
Some of the results follow.

What follows are sequences tested against T1, OsWOX13 (Oryza sativa, UniProt Q5QMM3 1-267) (assay: protein-binding microarray (RPBM); PBS, 2% BSA, 51.3 ng/ul salmon testes DNA, 50 uM zinc acetate, 200 nM TF, 25 C, 1 h; high values mean tight binding). Conditions: protein: recombinant; tags: N-terminal polyhistidine and DsRed monomer fusion (pET32a); label: CyDye5-dUTP incorporated in the synthesized complementary strand; 3' TTTTT single-stranded linker to array surface; dsDNA, one strand shown.
T1 sequence: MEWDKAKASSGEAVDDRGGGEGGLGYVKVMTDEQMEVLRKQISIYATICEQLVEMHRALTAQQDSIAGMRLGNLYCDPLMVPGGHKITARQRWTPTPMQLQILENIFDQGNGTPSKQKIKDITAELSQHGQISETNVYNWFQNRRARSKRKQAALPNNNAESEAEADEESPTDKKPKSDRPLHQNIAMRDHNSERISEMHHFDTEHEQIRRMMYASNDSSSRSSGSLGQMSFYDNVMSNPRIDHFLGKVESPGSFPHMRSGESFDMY
How it was run: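 For the binding signal, per-feature fluorescence intensity was read in arbitrary units on an Axon 4000B scanner. Before scanning, a 2% BSA-blocked custom Agilent array made double-stranded with Cy5-dUTP was washed after 1 h at 25 °C with 200 nM protein and 50 µM zinc acetate. The proteins were Ni–NTA-purified transcription factors with N-terminal polyhistidine and DsRed fusions, expressed in E. coli BL21-CodonPlus.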

Sequence	binding signal
TCATGATAAATTTCCTCCTATTATGATTTTCATTTGAATACGGAGTCACCTAGTGCAG	7480 fluorescence intensity (a.u.)
ATGCACCAACCAATCAATCGAAACAACAGGTCGAAGAAAACGGAGTCACCTAGTGCAG	4870 fluorescence intensity (a.u.)
ACTAATTAACTGATCAGTTACCAACCCTGTACTTTTATCACGGAGTCACCTAGTGCAG	39800 fluorescence intensity (a.u.)
ATCCAATCAGAAGGCTGTATGTGGTCTTCCGCTTGCATTACGGAGTCACCTAGTGCAG	8950 fluorescence intensity (a.u.)
GTAGACTGATCACAATCTTTATTAGAATCGTTTAAGACACCGGAGTCACCTAGTGCAG	6090 fluorescence intensity (a.u.)
AGAGTTAAATTAGCATTAAGAAATACTCCTATGTCTCTTGCGGAGTCACCTAGTGCAG	8630 fluorescence intensity (a.u.)
TACGTCATTCATTAACTGTTTAGGAGTATACTACTCCAGTCGGAGTCACCTAGTGCAG	3540 fluorescence intensity (a.u.)
TTATAAAATTAATTTGAGAAAATAGTTCAGCCGCTATGATCGGAGTCACCTAGTGCAG	20000 fluorescence intensity (a.u.)
AAATTGATTAACATATATATGAATGTGAGTAATGCTAGAACGGAGTCACCTAGTGCAG	33000 fluorescence intensity (a.u.)
CAAAATTGCAGATAAAATATATTCCCAGTATTTAGTTATTCGGAGTCACCTAGTGCAG	4830 fluorescence intensity (a.u.)
TGTTCAATTATTATGAAAATAATGTGAGAAAGATGATGTACGGAGTCACCTAGTGCAG	10400 fluorescence intensity (a.u.)
ATTGATTTGGAAGGATTTGGATTCGGGATTGAATTCGACGCGGAGTCACCTAGTGCAG	32500 fluorescence intensity (a.u.)
CGGGGTCTCATCATCTAGTTAATTAAATATCAAGGACACGCGGAGTCACCTAGTGCAG	9120 fluorescence intensity (a.u.)
TTGTGAAATCAGCTAATAATCATATTGGAAGTAGGTAAAGCGGAGTCACCTAGTGCAG	3430 fluorescence intensity (a.u.)
GAGGAAGTATAATCATTAGCAGTTAAATATTTCACTCGCACGGAGTCACCTAGTGCAG	5100 fluorescence intensity (a.u.)
GCCTTTTATTAATTAGCATTTCAAAGTTTTCTCAATGATGCGGAGTCACCTAGTGCAG	17300 fluorescence intensity (a.u.)
ATTCCTGTTAATTTGGCGCCGTAACTCCAAACAGCATATACGGAGTCACCTAGTGCAG	7370 fluorescence intensity (a.u.)
TCTCACTGATGATTTCAATCATACGCTCAACTTAAATATCCGGAGTCACCTAGTGCAG	20800 fluorescence intensity (a.u.)
TCTCCAAGATTGATTCGTTCCCTCCCAATTCTTCACTTCCCGGAGTCACCTAGTGCAG	20800 fluorescence intensity (a.u.)
CCTGATAGAAAATATTTATAGTGCCATCTTATTATTTATACGGAGTCACCTAGTGCAG	5680 fluorescence intensity (a.u.)
TTCAATTAATGTGGGATTTTCTAGACCATGAGAGAGAACGCGGAGTCACCTAGTGCAG	10100 fluorescence intensity (a.u.)

Sequence	binding signal
TTGACTGATAAAATTACGTAGTGTATTCCTCAATTAAATGCGGAGTCACCTAGTGCAG	14500 fluorescence intensity (a.u.)
TAAATCTGACGAAAGATTAATAGGTTAGTCCCATCATTTGCGGAGTCACCTAGTGCAG	3360 fluorescence intensity (a.u.)
GGCTTAATTGCTCTGTGGTGTACGTTTAACAGGGAAAACTCGGAGTCACCTAGTGCAG	28600 fluorescence intensity (a.u.)
AACATAATAAATTAATGAAGTATATTGTTGGAATGTAAAACGGAGTCACCTAGTGCAG	4070 fluorescence intensity (a.u.)
CACCAATCAGTAGAGGACTAGAGGAACTGAACTGAAACCTCGGAGTCACCTAGTGCAG	4860 fluorescence intensity (a.u.)
TAGCATGATTAATTTTGATAAGGCAAAGTTGTATTTGGATCGGAGTCACCTAGTGCAG	37700 fluorescence intensity (a.u.)
TGAAATGATTGGATAGAAGGCGATTCAAAATGAAACTTTGCGGAGTCACCTAGTGCAG	42000 fluorescence intensity (a.u.)
TTAGATGCAATTTAATTTAGTACAACGAATCATGATATGTCGGAGTCACCTAGTGCAG	3750 fluorescence intensity (a.u.)
TAAACAATCAAGTCCCTTTCTCCTACTTGCTGAATGTACTCGGAGTCACCTAGTGCAG	6020 fluorescence intensity (a.u.)
GTAATGTGACGATTAAGAAATCAACATTGATAGCCATTATCGGAGTCACCTAGTGCAG	5250 fluorescence intensity (a.u.)
TAACTGATTTGACTCGTGCGTACACGCATCGCAGTGACAACGGAGTCACCTAGTGCAG	15800 fluorescence intensity (a.u.)
CATAAATCATGGGGACTGAGATGCAAAACTGACCCTAACACGGAGTCACCTAGTGCAG	4540 fluorescence intensity (a.u.)
AATATGATAGATGTGCTCGGGCTCCTGGGAAAGAGGCCACCGGAGTCACCTAGTGCAG	7990 fluorescence intensity (a.u.)
ACCCTGTAAACTTGTTAATTGAATTCTAGTGGATGCACTGCGGAGTCACCTAGTGCAG	23400 fluorescence intensity (a.u.)
TTTGTGATAGATTAGCGCATAGTAAATAATATAATACAAACGGAGTCACCTAGTGCAG	6830 fluorescence intensity (a.u.)
TCACCACGTAGACAAATTCAATCAACCGGCTACCCTCCCGCGGAGTCACCTAGTGCAG	7540 fluorescence intensity (a.u.)
ACACTATTGATTTTGAACACGCATTTAACAATTTATCTTACGGAGTCACCTAGTGCAG	6390 fluorescence intensity (a.u.)
ACGATGAACAAATCAACCCAAATAACGTACCGTCGATTTTCGGAGTCACCTAGTGCAG	3930 fluorescence intensity (a.u.)
AGTTAATTAGTAAAGCCCAAGCAGTCCAGTAACCAATCCGCGGAGTCACCTAGTGCAG	34400 fluorescence intensity (a.u.)
AAAATAGATTTAATTATTAATTTAATAAAACTAATTTGATCGGAGTCACCTAGTGCAG	39300 fluorescence intensity (a.u.)
CTTTTATGATTAGGCCATAGAATATAAACAGTAATTCCGGCGGAGTCACCTAGTGCAG	24200 fluorescence intensity (a.u.)
